Drawing on the supplement of paper PMC10126150, this text covers switch fluorescence ratio for 67 sequences.

In the series the test system is ATP. Kind of series: switch fluorescence ratio, 500 uM ATP over buffer (Cy3 cluster intensity, sum of 5 cycles each) (fold (ratio)); higher = stronger signal-on switching upon ATP binding; sequences stand for … in TCGTCGGCAGCGTCAGATGTGTATAAGAGACAGTTTTTTTTTTTTTTTTTTTTTTTTT…TC. The settings on record: aptamer strand: ATP DNA aptamer (quencher-CACCTGGGGGAGTATTGCGGAGGAAGG + anchor), 100 nM annealed; ATP concentration: 500 uM; one replicate. The gist of the method: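 Imaging in selection buffer was followed by imaging after 15 min with 500 uM ATP at 22 °C, for Cy3-labelled switching-strand clusters annealed to 100 nM quencher-labelled ATP aptamer on a modified Illumina MiSeq flow-cell. Five of these buffer/ATP cycles ran, separated by NaOH stripping and re-annealing. The fluorescence ratio per cluster is summed target-cycle over summed buffer-cycle Cy3 intensity, averaged per switch-domain sequence; clusters outside 100-1000 RFU were removed.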

Values marked as one replicate rest on one cluster of the flow cell; about a third of the high ones do not repeat.
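Note: ATP exposure 15 min at 22 °C before imaging.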

As for TTTAAAAATG, the switch fluorescence ratio was determined as 1.03.
For the sequence TTGGATGATT, the switch fluorescence ratio is 1.05.
Regarding AGATGAATG, the switch fluorescence ratio amounted to 1.03.
As for TGACTCCGT, the switch fluorescence ratio is 1.29.
As for CTTCCGTACG, the switch fluorescence ratio was 2.78.
Take ATTAAATGCG: the switch fluorescence ratio came out at 1.04.
As for CGCGATAGTC, the figure is 3.03; as for GGATCAGCTC, 1.02; as for AAAAACCATC, 1.05.
Regarding CTGAGTCAAG, the switch fluorescence ratio was found to be 1.1.
CTCCAGCTAG: the switch fluorescence ratio turned out to be 2.18.
In the case of AAGAAGCTAG it was 1.07.
For CGGTATCACG, the switch fluorescence ratio was 0.967.
In the case of GCACGTAAGG it was 1.17; in that of AGCCAGGTTT, 1.1.
As to CCACCGTATA, the switch fluorescence ratio stood at 4.97.
In the case of GACGGTGAGT, the switch fluorescence ratio is 1.03.
Regarding GAATAAGTAT, the switch fluorescence ratio amounted to 0.999.
Take AGTCACCCGC: the switch fluorescence ratio came to 1.1.
As for CGCATCGAAT, the figure is 1.04; as for AACCAAGGTG, 1.02; as for AAAGTACAGT, 1.17.
As for ATGCTAGTAA, the switch fluorescence ratio came to 0.982.
In the case of TTCTGGTCGA it was 0.987.
For CATCGTGGGC, the switch fluorescence ratio amounted to 0.999.
As for GTTCACAATA, the switch fluorescence ratio came out at 1.1.
For the sequence TGAAACGCCA, the switch fluorescence ratio amounted to 1.11.
With TAAAATATGC, the switch fluorescence ratio is 0.957.
As for TTGAGAGTGG, the switch fluorescence ratio turned out to be 1.01.
With GTGGTGAGAT, the switch fluorescence ratio was 0.982.
Consider CAATCGCCCG, for which the switch fluorescence ratio was found to be 0.97.
GCCGAAGACA: the switch fluorescence ratio was determined as 1.
As for ATGACTAATT, the switch fluorescence ratio was determined as 0.997.
In the case of ATGATGTGCC it was 0.985; in that of CTATGGGCAC, 0.995; in that of TTCTTATTAC, 1.29.
As to GCAGTACGC, the switch fluorescence ratio is 1.49.
Take GTTATCCGGA: the switch fluorescence ratio stood at 1.02.
In the case of CCGAGTACGG it was 1.1; in that of TTTTGCGTA, 0.972.
Consider GGCAACAGAA, for which the switch fluorescence ratio came out at 1.02.
As for TTCATCTGTG, the figure is 1.01; as for AAATATGCGG, 0.954; as for AATCTTCCGT, 1.55.
In the case of GGACTAAAGG it was 1.04; in that of TGTCACGGCT, 1.01.
For AGGCCAAAAT, the switch fluorescence ratio came out at 0.946.
As for AGGGTTTTTC, the switch fluorescence ratio stood at 1.05.
In the case of GAGTATTTGG, the switch fluorescence ratio turned out to be 0.999.
As to ATCAGGTCTA, the switch fluorescence ratio came to 0.992.
As for CAGCCGTAAA, the figure is 1.08; as for TGAGCTTACT, 1.29; as for CGACTAAGAT, 1.03.
In the case of CCGGGCCTGG it was 1.06; in that of CTATTCACGG, 1; in that of GGTAGGCATG, 1.
As for AGTGACTCCG, the figure is 1.32; as for CATTCATTGG, 0.994; as for TTGTGCATTG, 1.06.
As to TGGAGGAACG, the switch fluorescence ratio was 0.989.
For TATGTAAGCC, the switch fluorescence ratio amounted to 0.969.
As to CCCGTCTCCC, the switch fluorescence ratio was found to be 1.57.
For GTTTGTAATC, the switch fluorescence ratio worked out at 1.02.
Turning to CGGAGTCGCT, the switch fluorescence ratio was found to be 1.03.
As to TGCTTAGTTT, the switch fluorescence ratio came out at 0.929.
As for CTTTGGGCCT, the switch fluorescence ratio stood at 1.43.
In the case of GTGATAGACG it was 0.979.
